Laboratory results from PubChem BioAssay AID1345082 (National Center for Advancing Translational Sciences (NCATS), 2018).
Several values for one entry are separate records, joined by “and”; a condition that tells them apart may be missing. Equal entries are not always repeated. Hit rate of the full screen: of about 94,000 compounds, about 4,000 (4.3%) were called active. This list was built around the results that the source calls inconclusive (neither active nor inactive); the mix of calls is not that of the screen. The call rests on the fitted dose curve; in most records, active means well fitted inhibition curve with a large enough effect; inconclusive means small, poorly fitted or top-dose-only effect; inactive means no such curve, though single readings can be large or run the other way. Potencies of inconclusive entries are doubtful fits and often do not repeat.

Assay: Cytotoxic Profiling in NIH 3T3 Cell Line of Diverse Libraries Using Quantitative High-Throughput Screening; further: nearly all actives have a fitted effect of over 55% in size
Conditions: NIH 3T3 viability, CellTiter-Glo ATP luminescence, 48-72 h; activity change, negative = cytotoxicity: at 96.7 µM (top of the series); series mostly up to 96.7 µM
Procedure, shortened: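 Cells were seeded at 400 per well, treated with pin-transferred compound, and kept 48 or 72 hr at 37 °C before CellTiter-Glo addition and luminescence imaging of cellular ATP.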
On the % scale 0 is the no-effect control and ±100 the full control effect; potency means the concentration at half of the fitted maximal effect; tags describe the fitted curve by direction and shape.

| Compound | activity change, negative = cytotoxicity | Potency |
| --- | --- | --- |
| CC(=O)NCC(=O)N1CCC(N2C(=O)C(OCC3CC3)C23CCCCC3)CC1 (stereo not given) | inactive: -6.16% |  |
| COc1ccc2[nH]c3c(c2c1)CCNC31CCN(S(=O)(=O)c2cccnc2)CC1 |  | inconclusive: 56.2 µM [inhibitor, partial curve, poor fit] |
| CN1CCC([C@@H]2CN(S(=O)(=O)c3ccc4c(c3)CCC4)C[C@H]2C(N)=O)CC1 | inactive: 0.482% |  |
| COCCn1c(C)nnc1-c1cc(-c2cccc(F)c2)ccn1 |  | inconclusive: 79.4 µM [inhibitor, partial curve, poor fit] |
| Cc1noc(C)c1S(=O)(=O)N1CCC(CO)(CCCc2ccccc2)CC1 |  | inconclusive: 50.1 µM [inhibitor, single point] |
| CCCCc1ccc(NC(=O)CN2C(=O)C(c3ccccc3)=NC23CCCC3)cc1 |  | inconclusive: 44.7 µM [inhibitor, partial curve, poor fit] |
| Cc1ccc(-c2cn3cc(C(=O)N4CCOCC4)nc3s2)cc1 |  | inconclusive: 79.4 µM [inhibitor, partial curve] |
| COc1cccc(-c2cc3c(=O)n(CCNC(=O)COc4cccc(C)c4)ccn3n2)c1 |  | inconclusive: 35.5 µM [inhibitor, partial curve] |
| CC(C)NC(=O)N1CCCN(c2ccc3nnc(C4CC4)n3n2)CC1 | inactive: -23.5% |  |
| COc1ccc(C(=O)N2CC(N3C(=O)c4c(c(C)nn4-c4ccccc4)C3C)C2)cc1 (stereo not given) |  | inconclusive: 70.8 µM [inhibitor, single point] |
| COCCCNc1nc2c(S(=O)(=O)c3ccc(C(C)C)cc3)nnn2c2ccccc12 |  | inconclusive: 70.8 µM [inhibitor, partial curve, poor fit] |
| NCc1ccccc1Oc1ccc(F)c(Cl)c1 |  | inconclusive: 100 µM [inhibitor, partial curve, poor fit] |
| CC(=O)N1CCn2c(nnc2C2CCCN2Cc2cc(Cl)ccc2F)C1 (stereo not given) | inactive: -14.5% |  |
| O=C1NCCN2CC3(CCN(C(=O)Nc4ccc5c(c4)OCCO5)CC3)CC12 (stereo not given) |  | inconclusive: 50.1 µM [inhibitor, partial curve, poor fit] |
| COc1ccc(F)cc1-c1ccc(CN2CCC(NC(C)=O)C2)cc1 (stereo not given) |  | inconclusive: 44.7 µM [inhibitor, partial curve, poor fit] |
| O=C(Cc1ccc(F)cc1)N1CCN(C(=O)c2nnn3c2COC(c2ccccc2)C3)CC1 (stereo not given) | inactive: -5.8% |  |
| Cc1ccc(CN2CCN(c3ncnc4onc(C)c34)CC2CCO)cc1 (stereo not given) |  | inconclusive: 25.1 µM [inhibitor, full curve, poor fit] |
| COCCN1C(=O)[C@@H]2C[C@@H](CN2Cc2cccnc2)Oc2ccccc21 |  | inconclusive: 100 µM [inhibitor, partial curve, poor fit] |
| CCCn1cnc2c1CN(C(=O)c1ccc(F)cc1)[C@H](C(=O)OC)C2 | inactive: -13.2% [at 174 µM] |  |
| Cc1nnc2ccc(N3CCC(NC(=O)c4ccc(F)cc4)C3)nn12 (stereo not given) | inactive: -15.2% [at 138 µM] |  |
| CCN(CC)C(=O)N1CCCOCCNC(=O)[C@@H]2CCC[C@@H]21 | inactive: 0.405% |  |
| O[C@@H]1C[C@@H](c2nc(Cc3ccc(F)cc3Cl)no2)N(Cc2ccc(OC(F)(F)F)cc2)C1 |  | inconclusive: 50.1 µM [inhibitor, partial curve, poor fit] |

| Compound | activity change, negative = cytotoxicity | Potency |
| --- | --- | --- |
| Cc1cc(C)cc(-c2ccc(CN3CCCC(N[S+](C)(=O)[O-])C3)cc2)c1 (stereo not given) |  | inconclusive: 31.6 µM [inhibitor, full curve, poor fit] |
| CC(C)CCNC(=O)c1cnc2c(c1)N([S+](=O)([O-])c1cccnc1)CCC2 |  | inconclusive: 79.4 µM [inhibitor, partial curve] |
| CC1(C)[C@H](Cc2cc(COC(=O)c3cccs3)on2)C[C@@H]1NC(=O)c1cccs1 |  | inconclusive: 112 µM [inhibitor, partial curve] |
| CCOC(=O)[C@H]1C[C@]2(CCCCN(CCOC)C2=O)N(C(=O)Cc2ccc(F)cc2)[C@H]1c1ccccc1 |  | inconclusive: 70.8 µM [inhibitor, partial curve, poor fit] |
| CCC1CN(c2ccc(-c3nc(-c4ccc(OC)cc4)no3)cn2)CCN1C (stereo not given) |  | active: 79.4 µM |
| Cc1cc(-c2nc3ncccc3[nH]2)c(C)[nH]1 |  | inconclusive: 63.1 µM [inhibitor, full curve, poor fit] and inconclusive: 112 µM [inhibitor, partial curve, poor fit] |
| O=C([C@@H]1CCCN1c1nccc(Nc2ccccc2Cl)n1)N1CCN(Cc2ccccc2)CC1 |  | active: 44.7 µM |
| O=C(Cc1ccc(N(Cc2cccc(F)c2)C(=O)c2ccco2)cc1)NCC1CCCO1 (stereo not given) | inactive: -22.9% |  |
| COc1ccc(-c2nccc3c(=O)cc(N(C)c4ccccc4)oc23)cn1 |  | inconclusive: 22.4 µM [inhibitor, full curve, poor fit] |
| Cc1nn2c(c1-c1cccc3cn[nH]c13)N(C(=O)c1cccc(Cl)c1)CCC2 |  | inconclusive: 39.8 µM [inhibitor, partial curve, poor fit] |
| Cc1nn2c(c1-c1ccccc1-c1ccccc1)N(CCC(C)C)CCC2 |  | active: 8.91 µM |
| O=C(CCCc1ccccc1)N1CC(c2noc(COc3ccccc3)n2)C1 |  | inconclusive: 50.1 µM [inhibitor, partial curve, poor fit] |
| CSCCNC(=O)C1CCCN1c1nc2ncccc2o1 (stereo not given) | inactive: -15.3% [at 138 µM] |  |
| O=C(CC1CCCCN(Cc2ccccc2)C1=O)Nc1ccccc1 (stereo not given) |  | inconclusive: 50.1 µM [inhibitor, partial curve, poor fit] |
| CC(=O)N1CCN(C(=O)c2nc(N)nc3c2CCCC3)CC(O)C1 (stereo not given) | inactive: -2.63% |  |
| O=C(Nc1nccs1)c1ccc2c(c1)OCCN(c1ccccc1)C2 |  | inconclusive: 56.2 µM [inhibitor, partial curve, poor fit] |
| CN(Cc1cccc(C(F)(F)F)c1)C(=O)Cc1ccc(F)cc1 |  | inconclusive: 50.1 µM [inhibitor, full curve] |
| c1cc(CN2CCOCC2)cc(-c2cnn3ccccc23)c1 |  | inconclusive: 79.4 µM [inhibitor, partial curve, poor fit] |
| CCCc1cc(N2CCC(N[C@@H]3CCNC3)CC2)nc(C)n1 | inactive: -17.9% |  |
| O=C1CC(c2noc(C3CCC3)n2)CN1C1CCCCC1 (stereo not given) | inactive: -2.91% |  |
| NC(=O)Cc1c[nH]c2ncc(-c3ccccc3C(F)(F)F)cc12 | inactive: -27.6% [at 138 µM] |  |
| COc1ccccc1Nc1ccnc(N2CCC(NC(=O)c3ccc(F)cc3)CC2)n1 | inactive: -27.8% |  |

| Compound | activity change, negative = cytotoxicity | Potency |
| --- | --- | --- |
| O=C(NCc1cccc(F)c1)C1CCc2sc(C(=O)N3CCCCC3)cc2C1 (stereo not given) |  | inconclusive: 56.2 µM [inhibitor, partial curve, poor fit] |
| O=C(NCc1cccs1)c1cn2cc(-c3ccc(F)cc3)sc2n1 |  | inconclusive: 44.7 µM [inhibitor, partial curve, poor fit] |
| COc1cccc(-c2cc(C(=O)NCc3ccccn3)c3cnn(C)c3n2)c1 |  | inconclusive: 44.7 µM [inhibitor, partial curve, poor fit] |
| COc1cccc(CNC(=O)C2CCN(C(=O)c3ncn4c3COC(c3ccc(F)cc3)C4)CC2)c1 (stereo not given) | inactive: -5.59% |  |
| CC1=C[C@@H](CN2CCC(O)CC2)[C@H](C(C)C)C[C@H]1Cc1nnc(-c2ccc([N+](=O)[O-])cc2)o1 |  | inconclusive: 50.1 µM [inhibitor, partial curve, poor fit] |
| COc1ccc(S(=O)(=O)NC[C@@H]2C=C(C)[C@H](CC(=O)N3CCN(C)CC3)C[C@H]2C(C)C)cc1 |  | inconclusive: 39.8 µM [inhibitor, full curve, poor fit] |
| COc1ccc(C(=O)N2C[C@@H](CO)[C@H](c3ccncc3)C2)c(C)c1 | inactive: -26.3% |  |
| COc1ccc(Cl)cc1C(=O)NCc1nnc2ccc(-c3ccccc3)nn12 | inactive: -27.2% |  |
| CCN(CC)Cc1cc(-c2nc(C3CCOC3)no2)c(-c2ccccc2)o1 (stereo not given) |  | inconclusive: 50.1 µM [inhibitor, partial curve, poor fit] |
| CC(C)CN(Cc1cccnc1)C1CN(C(=O)NCc2ccc(F)cc2)C1 | inactive: -6.35% |  |
| CC(C)C(=O)NCCC1CCN(C(=O)Nc2cc(F)ccc2F)CC1 | inactive: -5.2% |  |
| CC(C)C[C@@H]1N[C@H](C(=O)NC2CCC2)Cc2cn(Cc3ccncc3)c3cccc1c23 |  | active: 79.4 µM |
| CCOC(=O)[C@@H]1CN(C(=O)NCc2ccccc2)[C@H]2c3ccccc3O[C@@H]12 |  | inconclusive: 56.2 µM [inhibitor, partial curve, poor fit] |
| O=C(O)CCc1nc(C2CCOCC2)n[nH]1 | inactive: -3.92% |  |
| O=C(Cc1cccnc1)N1CCC(N2C(=O)C(OCC3CC3)C23CCCCC3)CC1 (stereo not given) |  | inconclusive: 50.1 µM [inhibitor, partial curve, poor fit] |
| Cc1ccccc1-c1noc(CNCc2nc3ccc(Cl)cc3[nH]2)n1 |  | inconclusive: 89.1 µM [inhibitor, partial curve, poor fit] |
| COCCNC(=O)C1COC2(CCN(C(=O)c3ccccc3C)CC2)N1C(=O)c1cccc(OC)c1 (stereo not given) | inactive: -24.2% |  |
| Cn1c(CNC(=O)C2(Cc3ccccc3)CCCCC(=O)N2)nc2ccccc21 (stereo not given) |  | inconclusive: 50.1 µM [inhibitor, partial curve, poor fit] |
| Cc1cccc(O[C@H]2COCCN(c3nc4ccccc4s3)C2)n1 |  | inconclusive: 100 µM [inhibitor, single point] |
| Cc1nnc2ccc(N3CCN(C(=O)c4ccc(Cl)cc4)CC3)nn12 |  | inconclusive: 44.7 µM [inhibitor, partial curve, poor fit] |
| Fc1cccc(NC2CCCN(Cc3cccn3-c3nccs3)C2)c1 (stereo not given) |  | inconclusive: 89.1 µM [inhibitor, partial curve, poor fit] |
